This is a selection; strong and weak results do not stand in their true shares. For some of these results: At the low end of the ranking the order means little. The list shows a part of the results. For some of these results: The source does not settle which construct or isoform was used.
Legend:
Assay in all cases: universal protein binding microarray (PBM)
Conditions in all cases: transcription factors of Arabidopsis thaliana; high values mean tight binding; most listed sequences are background and not binding sites; double strand, one strand shown
[1] = target: GST-NTL6(1-168) (UniProt Q9SCK6)
[2] = target: T1, GST-ANAC019 NAC domain (UniProt Q9C932)
T1 sequence: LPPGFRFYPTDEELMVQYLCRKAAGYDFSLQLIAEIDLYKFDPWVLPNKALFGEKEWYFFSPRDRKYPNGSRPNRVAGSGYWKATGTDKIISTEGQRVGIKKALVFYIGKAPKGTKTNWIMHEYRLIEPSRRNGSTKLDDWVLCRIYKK

[3] = target: T2, GST-NAP(1-166) (UniProt O49255)
T2 sequence: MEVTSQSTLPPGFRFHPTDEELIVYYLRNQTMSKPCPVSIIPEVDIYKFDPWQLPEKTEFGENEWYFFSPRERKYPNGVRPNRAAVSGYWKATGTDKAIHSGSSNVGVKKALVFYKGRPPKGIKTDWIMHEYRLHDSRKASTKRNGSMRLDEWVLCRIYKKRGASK

[4] = target: T3, GST-NTL8 NAC domain (UniProt Q9XIN7)
T3 sequence: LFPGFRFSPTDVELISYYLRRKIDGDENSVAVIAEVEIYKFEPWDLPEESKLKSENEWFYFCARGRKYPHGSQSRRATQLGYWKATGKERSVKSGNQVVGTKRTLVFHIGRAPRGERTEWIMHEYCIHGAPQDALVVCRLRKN

[5] = target: T4, GST-VOZ2 (Arabidopsis thaliana) (UniProt Q9SLB9)
T4 sequence: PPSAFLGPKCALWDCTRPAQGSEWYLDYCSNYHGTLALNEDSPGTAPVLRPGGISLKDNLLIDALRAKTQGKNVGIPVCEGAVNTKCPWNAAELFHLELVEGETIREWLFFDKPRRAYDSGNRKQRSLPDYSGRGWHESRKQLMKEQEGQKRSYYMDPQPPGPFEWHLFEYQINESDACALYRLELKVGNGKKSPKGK

[6] = target: GST-WRKY1(266-371) (UniProt Q9SI37)
[7] = target: T5, GST-ATAF1 NAC domain (UniProt Q39013)
T5 sequence: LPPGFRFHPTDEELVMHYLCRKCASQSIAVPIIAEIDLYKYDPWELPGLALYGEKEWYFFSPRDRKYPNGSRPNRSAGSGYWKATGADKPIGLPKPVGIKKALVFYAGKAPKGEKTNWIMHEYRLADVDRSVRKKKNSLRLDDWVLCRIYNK

[8] = target: T6, GST-ANAC092(1-285) full length (UniProt Q9FKA0)
T6 sequence: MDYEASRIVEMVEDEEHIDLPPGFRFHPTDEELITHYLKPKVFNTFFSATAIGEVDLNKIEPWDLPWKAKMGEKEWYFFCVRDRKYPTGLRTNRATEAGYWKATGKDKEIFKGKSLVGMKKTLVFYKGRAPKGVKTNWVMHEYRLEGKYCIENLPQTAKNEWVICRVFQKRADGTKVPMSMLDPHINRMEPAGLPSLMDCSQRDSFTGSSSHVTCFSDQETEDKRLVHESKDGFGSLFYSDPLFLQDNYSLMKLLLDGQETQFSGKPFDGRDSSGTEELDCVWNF

[9] = target: T7, GST-NST2(1-184) (UniProt Q9M274)
T7 sequence: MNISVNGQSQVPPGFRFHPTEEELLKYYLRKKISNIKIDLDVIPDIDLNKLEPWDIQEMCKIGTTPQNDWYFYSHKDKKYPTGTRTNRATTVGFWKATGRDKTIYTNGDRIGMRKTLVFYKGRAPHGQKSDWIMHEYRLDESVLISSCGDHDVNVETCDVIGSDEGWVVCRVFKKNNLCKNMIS

[10] = target: T8, GST-ANAC055(1-171) (UniProt Q9LDY8)
T8 sequence: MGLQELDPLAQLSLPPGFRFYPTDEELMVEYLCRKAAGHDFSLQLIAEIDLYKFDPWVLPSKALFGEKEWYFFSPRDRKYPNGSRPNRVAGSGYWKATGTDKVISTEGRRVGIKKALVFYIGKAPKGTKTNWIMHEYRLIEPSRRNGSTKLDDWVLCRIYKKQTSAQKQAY

| Sequence | binding signal [1] | binding signal [2] | binding signal [3] | binding signal [4] | binding signal [5] | binding signal [6] | binding signal [7] | binding signal [8] | binding signal [9] | binding signal [10] |
| --- | --- | --- | --- | --- | --- | --- | --- | --- | --- | --- |
| ATTTCGTG | -0.00813 E-score | 0.174 E-score | 0.133 E-score | -0.0332 E-score | 0.109 E-score | -0.0503 E-score | – | – | – | – |
| ACGTTACC | 0.0139 E-score | 0.263 E-score | – | 0.384 E-score | -0.0169 E-score | 0.0431 E-score | 0.195 E-score | 0.467 E-score | 0.331 E-score | – |
| AGACGCAA | 0.0768 E-score | 0.222 E-score | – | 0.107 E-score | 0.0678 E-score | 0.0554 E-score | – | – | – | 0.246 E-score |
| TCACGGCA | 0.00228 E-score | – | 0.344 E-score | 0.0475 E-score | 0.033 E-score | -0.031 E-score | – | 0.429 E-score | – | 0.438 E-score |
| CACGCATC | -0.0123 E-score | – | 0.309 E-score | -0.0379 E-score | 0.00487 E-score | -0.0944 E-score | – | – | – | 0.291 E-score |
| ATGACGTG | -0.0151 E-score | 0.311 E-score | – | -0.121 E-score | 0.0934 E-score | 0.0849 E-score | – | – | – | – |
| AAACGTAA | – | 0.268 E-score | – | – | -0.00646 E-score | 0.0087 E-score | 0.296 E-score | – | – | – |
| ACACGGAA | – | – | 0.45 E-score | 0.02 E-score | -0.161 E-score | 0.0128 E-score | – | 0.458 E-score | – | 0.481 E-score |
| CACGAAAC | 0.112 E-score | – | 0.208 E-score | 0.137 E-score | 0.125 E-score | -0.132 E-score | – | – | – | – |
| ACGTAATA | – | – | – | – | 0.0984 E-score | 0.0177 E-score | – | – | – | 0.375 E-score |
| TAAGGAAA | – | 0.00218 E-score | – | 0.424 E-score | 0.0254 E-score | -0.0601 E-score | – | – | – | – |
| ACGCAATC | 0.0153 E-score | – | – | -0.0397 E-score | 0.0836 E-score | -0.125 E-score | 0.298 E-score | – | – | – |
| TACGTTAA | – | 0.0653 E-score | – | -0.201 E-score | 0.0234 E-score | -0.0754 E-score | – | – | – | – |
| ACGGCAAC | -0.011 E-score | – | – | 0.0385 E-score | -0.137 E-score | -0.105 E-score | 0.288 E-score | – | – | – |
| ATTGCGTA | 0.0289 E-score | – | 0.423 E-score | – | 0.172 E-score | -0.112 E-score | – | – | – | – |
| AAGCAAAC | – | -0.0058 E-score | 0.119 E-score | 0.336 E-score | 0.0951 E-score | -0.0166 E-score | 0.137 E-score | – | – | 0.194 E-score |
| ACGCAACA | 0.0917 E-score | – | 0.399 E-score | 0.0984 E-score | 0.215 E-score | -0.0594 E-score | – | 0.484 E-score | – | – |

| Sequence | binding signal [1] | binding signal [2] | binding signal [3] | binding signal [4] | binding signal [5] | binding signal [6] | binding signal [7] | binding signal [8] | binding signal [9] | binding signal [10] |
| --- | --- | --- | --- | --- | --- | --- | --- | --- | --- | --- |
| AAGGGTAA | 0.194 E-score | – | 0.117 E-score | 0.444 E-score | 0.0298 E-score | -0.0799 E-score | – | 0.134 E-score | – | – |
| TAACGTGA | 0.0647 E-score | – | – | 0.0325 E-score | 0.0616 E-score | -0.09 E-score | – | – | 0.257 E-score | – |
| ACGCTAAC | -0.0376 E-score | – | – | -0.0862 E-score | 0.187 E-score | -0.105 E-score | – | – | – | – |
| ACGTTACT | 0.0863 E-score | – | 0.249 E-score | 0.233 E-score | 0.0652 E-score | -0.00626 E-score | – | 0.439 E-score | 0.268 E-score | – |
| TACGCTAA | – | 0.0422 E-score | 0.0453 E-score | -0.0759 E-score | 0.24 E-score | -0.0535 E-score | 0.19 E-score | – | – | – |
| CAAGTAAC | 0.316 E-score | – | – | – | -0.00868 E-score | -0.0394 E-score | – | – | 0.298 E-score | – |
| ACGTATCT | 0.0824 E-score | – | 0.393 E-score | -0.0604 E-score | 0.0213 E-score | -0.01 E-score | – | – | – | – |
| AATGCCGT | – | 0.428 E-score | – | -0.00491 E-score | -0.0168 E-score | -0.0386 E-score | 0.342 E-score | – | – | 0.391 E-score |
| ATACGGCA | -0.0469 E-score | – | – | -0.039 E-score | 0.00305 E-score | -0.0513 E-score | – | 0.433 E-score | 0.0642 E-score | – |
| ACGTTAAC | 0.00681 E-score | – | – | -0.0371 E-score | 0.0403 E-score | -0.00305 E-score | – | – | – | – |
| GTTAAGTA | 0.45 E-score | – | 0.0291 E-score | 0.228 E-score | 0.186 E-score | -0.0287 E-score | – | 0.123 E-score | – | – |
| GTTACTTA | – | 0.0988 E-score | 0.113 E-score | 0.286 E-score | 0.119 E-score | -0.0173 E-score | 0.256 E-score | – | – | – |
| TACGGCAA | 0.0375 E-score | – | – | 0.192 E-score | -0.0465 E-score | -0.0196 E-score | – | – | – | – |
| ATGTCGTG | -0.0866 E-score | – | – | -0.0268 E-score | -0.0567 E-score | 0.0308 E-score | – | – | – | – |
| AAGCAACC | – | 0.0254 E-score | -0.171 E-score | 0.301 E-score | 0.101 E-score | -0.159 E-score | – | – | – | – |
| CTAACGTA | 0.00293 E-score | – | 0.173 E-score | -0.00357 E-score | 0.0148 E-score | -0.0123 E-score | – | – | – | – |
| GTACGAAA | 0.184 E-score | – | – | – | 0.123 E-score | -0.106 E-score | – | – | 0.285 E-score | – |
